# Laboratory results published in PubChem BioAssay AID463173 (ICCB-Longwood Screening Facility, Harvard Medical School, 2010).
# About 4,300 (8.3%) of roughly 52,000 compounds were called active. Rule as the data show it: active = survival mostly below about 52% (no sharp cut-off); inactive = mostly above about 56%. This is one part of the list.
# Tested on: DeltatarO mutant
# Assay: S. aureus survival, RN4220 and DeltatarO strains – OD600, teichoic acid synthesis inhibitors, primary screen (AID 463173)
# Conditions: S. aureus RN4220 wild type/DeltatarO growth, OD600, 18 h, active compounds read low, screened at 18.75 µg/mL (by protocol)
row,SMILES,survival
1,Cc1ccc(NCc2cccn2-c2nnc(N3CCC(C(=O)NC(C)C)CC3)s2)cc1,inactive: 90%
2,Cc1ccc(S(=O)(=O)N2CCCc3cc(NS(=O)(=O)c4ccc(F)c(C)c4)ccc32)cc1,inactive: 76%
3,COc1ccc(-c2cc(C(F)(F)F)c(C#N)c(SCC(=O)Nc3ccc(F)cc3)n2)cc1,inactive: 69%
4,Cc1ccc(C(=O)CSc2nc(C)cc(C)c2C#N)cc1,inactive: 94%
5,O=C(CSc1nc2ccccc2c(=O)n1-c1ccccc1)N1CCOCC1,inactive: 85%
6,CCOc1ccc(-n2c(SCC(=O)N3CCCC3)nc3c([nH]c4ccccc43)c2=O)cc1,inactive: 98%
7,CCN(c1cc(C)cc(C)c1)S(=O)(=O)c1nnc(NC(=O)c2cccs2)s1,active: 25%
8,CCOc1ccc(-n2c(CCC(=O)O)ccc2-c2ccc(Br)cc2)cc1,active: 48%
9,Cc1nc(-c2ccccc2)sc1-c1ccc(SCC(=O)NCc2ccc(F)cc2)nn1,inactive: 53%
10,Cn1c(=O)c2c(SCC(=O)N3CCc4ccccc43)nc(-c3ccccc3Cl)nc2n(C)c1=O,inactive: 82%
11,Cc1ccc(C(C)C)c(OCC(=O)Nc2cccc(NC(=O)c3ccco3)c2)c1,active: 10%
12,CCC(CC)C(=O)NC1CC(=O)N(c2ccc3c(c2)OCCO3)C1 (stereo unspecified),inactive: 116%
13,Cc1ccc(-c2nc3cccnc3s2)cc1NC(=O)C(C)C,inactive: 112%
14,Cc1ccc(-c2ccc(=O)n(Cc3cc(C)ccc3C)n2)cc1,active: 57%
15,COc1ccc(C(=O)c2cn(CC(=O)Nc3ccc4c(c3)OCCO4)c3ccc(OC)cc3c2=O)cc1,inactive: 85%
16,Cc1oc2ccc(O)c(CN(C)Cc3ccccc3)c2c1C(=O)Nc1cccc(C(F)(F)F)c1,active: 6%
17,COc1ccccc1OCCn1c(-c2ccc(Cl)cc2)nc2ccccc2c1=O,inactive: 77%
18,O=C(CSc1nc(-c2ccccc2)no1)N1CCN(c2ccccc2F)CC1,inactive: 94%
19,COc1cccc(C2=CC(c3ccc(OC)c(OC)c3OC)n3ncnc3N2)c1 (stereo unspecified),inactive: 91%

row,SMILES,survival
1,O=C(Cn1c(=O)nc(-c2ccccc2)c2ccccc21)Nc1ccc(Cl)c(C(F)(F)F)c1,inactive: 90%
2,CCN(C(=O)Cc1nc(-c2ccc(OC)cc2)no1)c1cccc(Cl)c1,inactive: 83%
3,CCc1ccc(CNC(=O)CCSCc2ccccc2F)cc1,inactive: 96%
4,Cc1cccc(NS(=O)(=O)c2ccc3[nH]c(=O)ccc3c2)c1C,inactive: 96%
5,COc1ccccc1N1CCN(S(=O)(=O)c2c(C)sc3ncn(CC(=O)Nc4cccc(Cl)c4)c(=O)c23)CC1,inactive: 75%
6,COC(=O)c1c(-c2ccc(Cl)cc2)noc1N1CCN(c2ccc(OC)cc2)CC1,inactive: 88%
7,Cc1ccc2c(c1)NC(=O)C(CC(=O)Nc1cc(Cl)ccc1C)O2 (stereo unspecified),inactive: 90%
8,COc1ccc(C2CC(c3c(O)n(C4CCCCC4)c(=O)[nH]c3=O)=Nc3ccccc3S2)cc1 (stereo unspecified),inactive: 48%
9,CCn1cc(C(=O)Nc2ccccc2)c(=O)c2ccc(C)nc21,inactive: 78%
10,CCOc1ccc(CCNC(=O)CN2C(=O)C(CC)Oc3ccccc32)cc1OCC (stereo unspecified),inactive: 89%
11,COC(=O)C1=C(C)OC(N)=C(C#N)C1c1c(C)nn(-c2ccccc2)c1Cl (stereo unspecified),inactive: 92%
12,COCC(=O)N(C)c1nnc(-c2ccc(OC)cc2)s1,inactive: 85%
13,COc1ccc(C(=O)NCc2nnc(SCC(=O)Nc3ccccc3)n2-c2ccc(F)cc2)cc1,inactive: 73%
14,COc1ccc(NC(=O)c2c(NCc3ccc(C)o3)sc3c2CCC(C)C3)c(OC)c1 (stereo unspecified),inactive: 82%
15,COc1ccc(OC)c(NC(=O)CSc2ccnc(=O)[nH]2)c1,inactive: 78%
16,Cn1c(=O)oc2cc(S(=O)(=O)CCC(=O)N3CCN(c4ccccc4)CC3)ccc21,inactive: 94%
17,CCOc1ccc(C(=O)Nc2cccc(NC(=O)c3ccco3)c2)cc1Cl,inactive: 55%
18,COc1ccccc1CNC(=O)c1ccc(N2CCCC2)c(NC(=O)NCc2ccccc2)c1,inactive: 78%
19,O=C(O)c1ccc(CSc2n[nH]c(-c3ccco3)n2)cc1,inactive: 101%

row,SMILES,survival
1,O=C(COc1ccccc1F)OCc1cc(=O)n2nc(-c3cccs3)sc2n1,inactive: 119%
2,CCC(C(=O)N1CCN(c2ccccc2)CC1)n1nc(C)n2c(cc3sccc32)c1=O (stereo unspecified),inactive: 101%
3,CCc1nn2c(=O)cc(COC(=O)CNC(=O)c3ccccc3)nc2s1,inactive: 123%
4,O=C(Nc1ccc(Br)cc1)C1CCN(c2cnccn2)CC1,inactive: 67%
5,COc1cc(OC)c(Nc2cc(C)nc3ncnn23)cc1Cl,inactive: 97%
6,COc1ccc(Cn2c(=O)[nH]c3cc(C(=O)N4CCN(c5cc(C)ccc5C)CC4)ccc3c2=O)cc1,inactive: 73%
7,COc1ccc(C)cc1NC(=O)c1cc(S(=O)(=O)NC2CCCCCC2)ccc1F,inactive: 80%
8,NC(=O)c1cc(S(=O)(=O)N2CCN(c3ccc(F)cc3)CC2)cs1,inactive: 88%
9,CCC(CC)c1nn2c(=O)cc(COc3ccc(NC(=O)c4ccccc4Cl)cc3)nc2s1,inactive: 94%
10,Cc1ccccc1CNC(=O)C1CCN(c2nn3cc(-c4ccc(F)cc4)nc3s2)CC1,inactive: 93%
11,CC1CCCCN1CCCNC(=O)Cn1ncc2c([nH]c3ccccc32)c1=O (stereo unspecified),inactive: 124%
12,Cc1cccc(CNS(=O)(=O)c2ccc3[nH]c(=O)ccc3c2)c1,inactive: 99%
13,CCCOc1ccc(-c2nn(-c3ccccc3)cc2C2NC(=O)NC(C)=C2C(=O)OC(C)C)cc1 (stereo unspecified),inactive: 54%
14,O=C1Nc2c(c(=O)[nH]c(=O)n2-c2ccccc2)C1(NS(=O)(=O)c1ccc(Cl)cc1)C(F)(F)F (stereo unspecified),inactive: 141%
15,Cc1ccc(NC(=O)Cn2c(=O)n(CCCCCC(=O)NCc3ccc(F)cc3)c(=O)c3sccc32)cc1C,inactive: 74%
16,O=C(Cc1ccc(F)cc1)NC1CC(=O)N(c2ccccc2)C1 (stereo unspecified),inactive: 88%
17,CCOc1ccc(Cn2nnc3c(=O)[nH]c(C4CCN(C(=O)c5ccccc5)CC4)nc32)cc1,active: 4%
18,COc1cc(-c2nnc(SCC(=O)NCc3ccccc3Cl)o2)cc(OC)c1OC,inactive: 106%
